Among all 410,000 compounds or so, about 7,200 (1.8%) were called active. Inconclusive results, whose numbers are uncertain, are shown with a selection of clear calls. Calls follow the shape of the dose curve; as a rule, active = well fitted activation curve with a large enough effect; inconclusive = small, poorly fitted or top-dose-only effect, or another doubt; inactive = no such curve, though single readings can be large or run the other way. No potency is given beside an inconclusive call; the fits are too rough.
Experiment: qHTS of TDP-43 Inhibitors; also: nearly all actives have a fitted effect of over 50% in size; as to growth rescue (activation): % of control where 0% means no effect
Conditions: TDP-43 expressing yeast growth rescue, BacTiter-Glo, 24 h; growth rescue (activation): at 46.1 µM (top of the series) unless noted
How it was run: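 Galactose-induced TDP-43 yeast, OD600=0.02, compound pinned; 24 hr, 30 deg C; BacTiter-Glo luminescence for growth. Inhibitors of TDP-43 toxicity read as activators.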
For `COc1ccc(CN2C[C@H]3CON(C)[C@H]3C[C@H]2c2ccc(-c3ccccc3)cc2)cc1`, the “growth rescue (activation)” value was inactive: 0.0683%.
In the case of `COc1ccc(-c2nnc3c4ccccc4c(C)nn23)cc1`, the Potency is reported as inconclusive [activator, single point].
For `CCc1c(-c2ccccc2)nc2ccccc2c1C(=O)NCc1ccc(C)cc1`, the Potency was active: 35.5 µM.
In the case of `O=C(Cc1ccc(NC(=O)C2CCN(C(=O)c3ccccc3)CC2)cc1)Nc1ccc(C(=O)N2CCOCC2)cc1`, the growth rescue (activation) is reported as inconclusive: 30.3% [activator].
In the case of `CC(C)c1cc(-c2cc(C(=O)Nc3ccccc3)on2)nc(NC2CCCC2)n1`, the Potency is reported as inconclusive [activator, single point].
For `c1csc(CCCN2CCCCC2)c1`, the “growth rescue (activation)” value was inactive: -30.3%.
For `Cc1ccccc1NC(=O)Cc1nc(CN(C)CC(=O)Nc2cccc(F)c2)cs1`, the “growth rescue (activation)” value was inactive: 17.1%.
For `CC1CCCN(c2ccc(C(=O)Nc3ccc4c(c3)OCO4)cc2[N+](=O)[O-])C1` (stereo not drawn), the Potency was inconclusive [activator, partial curve].
In the case of `O=C(c1ccc(-c2ccccc2)cc1)N1CCN(c2ccccc2)CC1`, the Potency is reported as inconclusive [activator, full curve].
With `O=C(Nc1ccc(Br)cc1F)N1CCC2(CC1)Oc1ccccc1C(=O)N2Cc1ccccc1F` the “growth rescue (activation)” value was inactive: -24.1%.
With `O=C(C1CC1)N1CCN(c2ccc([N+](=O)[O-])cc2-n2cccc2)CC1` the Potency was inconclusive [activator, single point].
For `CCOc1cc(S(=O)(=O)N(CC)CC)ccc1Br`, the Potency was inconclusive [activator, partial curve].
With `O=C1CSC2(C(=O)N(Cc3ccccc3)c3ccccc32)N1c1ccc(Cl)cc1` (stereo not drawn) the “growth rescue (activation)” value was inactive: 26.6%.
In the case of `Cc1cccc(CSCCNC(=O)CSCc2ccc([N+](=O)[O-])cc2)c1`, the Potency is reported as active: 17.8 µM.
In the case of `CN(CC(=O)Nc1ccc(Cl)c(Cl)c1)CC(=O)Nc1ccc2c(c1)OCO2`, the Potency is reported as inconclusive [activator, partial curve].
With `Cc1cccc(-c2nsc(SCC(=O)N3CCCC3)n2)c1` the Potency was inconclusive [activator, partial curve].
With `CC(C)COc1ccc(CSCCNC(=S)Nc2ccccc2)cc1` the Potency was inconclusive [activator, single point].
In the case of `COc1ccc(CCNC(=O)CCc2c(C)c3cc4c(C)coc4c(C)c3oc2=O)cc1OC`, the “growth rescue (activation)” value is reported as inactive: 1.76%.
With `COc1ccc(-c2cn3cccnc3n2)cc1NC(=O)c1cc(C)cc(C)c1` the “growth rescue (activation)” value was inactive: 23.2%.
With `COc1ccc(C(=O)COC(=O)Cn2cnc3ccccc3c2=O)c(OC)c1` the Potency was inconclusive [activator, partial curve].
With `CSc1ccc(CN(C)C(=O)c2cc(Cl)c3c(c2)OCCO3)cc1` the Potency was inconclusive [activator, partial curve].
With `O=C(NCc1cccc(C(F)(F)F)c1)C1CC(c2ccccc2[N+](=O)[O-])=NO1` (stereo not drawn) the Potency was inconclusive [activator, full curve].
In the case of `c1ccc(OCc2nn3c(-c4ccco4)nnc3s2)cc1`, the Potency is reported as inconclusive [activator, single point].
In the case of `Cc1ccc(-c2ccc(/C=C(\C#N)C(N)=S)o2)c([N+](=O)[O-])c1`, the Potency is reported as active: 22.4 µM.
In the case of `CC(C)c1ccc(/C=C/C(=O)O)cc1`, the Potency is reported as inconclusive [activator, single point].
For `Cc1ccccc1CSc1ncc(CO)n1Cc1ccc(F)cc1`, the “growth rescue (activation)” value was inactive: 0.427%.
In the case of `NC(=S)N/N=C\c1ccccc1OCc1ccccc1`, the Potency is reported as inconclusive [activator, single point].
With `Cc1ccc(S(=O)(=O)Nc2cc(Cl)c(O)c3ncccc23)cc1` the Potency was inconclusive [activator, single point].
With `COc1ccc(OC)c(C(=O)/C=C/c2ccccc2C(F)(F)F)c1` the Potency was inconclusive [activator, single point].
For `CC1(C)Cc2c(sc(NC(=O)C(=O)N3CCOCC3)c2C#N)CO1`, the Potency was inconclusive [activator, single point].
For `Cc1ccc2[nH]c(C)c(/C=N/Nc3nc4ccccc4s3)c2c1`, the Potency was inconclusive [activator, single point].
For `CCOCCCn1c(SCC(=O)NCc2ccco2)nc2c(sc3ccccc32)c1=O`, the “growth rescue (activation)” value was inactive: 18.1%.
With `CCCOc1ccc(C(=O)ON=C2CCN(C)CC2)cc1` the Potency was inconclusive [activator, single point].
With `Cc1ccc(S(=O)(=O)N2CCN(C(=O)c3ccco3)CC2)c(C)c1` the Potency was inconclusive [activator, partial curve].
In the case of `Cc1ccc(S(=O)(=O)N(C)c2nonc2C)cc1`, the Potency is reported as inconclusive [activator, partial curve].
In the case of `CC(C)(C)NC(=O)COc1ccc(-c2ccccc2)cc1`, the Potency is reported as inconclusive [activator, single point].
For `COc1cccc(CN2CC(C(=O)N(C)CCc3ccccc3)CCC2=O)c1` (stereo not drawn), the “growth rescue (activation)” value was inactive: 3.78%.
With `CC(C)NC(=O)COc1cccc2ccccc12` the Potency was inconclusive [activator, partial curve, poor fit].
With `N/C(=N\OC(=O)Cc1ccccc1[N+](=O)[O-])c1ccc(Br)cc1` the Potency was active: 15.8 µM.
With `Cc1cc(C(=O)N/N=C/c2sccc2C)no1` the “growth rescue (activation)” value was inactive: 17%.
In the case of `CCOC(=O)CSc1nc2cc3c(cc2cc1C#N)OCO3`, the “growth rescue (activation)” value is reported as inactive: 8.46%.
For `CCCCNC(=O)CSc1nnc(C)c2c(C)n(-c3ccccc3)nc12`, the “growth rescue (activation)” value was inactive: 4.06%.
In the case of `Cc1ccc(C2=NN(CCC(=O)NCc3ccc4c(c3)OCO4)C(=O)CC2)cc1`, the Potency is reported as inconclusive [activator, partial curve, poor fit].
With `c1ccc(-n2nnnc2Oc2ccc(-n3ccnc3)cc2)cc1` the “growth rescue (activation)” value was inactive: -6.71%.
For `O=C(O)c1cc([N+](=O)[O-])ccc1NCc1ccccc1`, the “growth rescue (activation)” value was inactive: 17.7%.
For `CCCCCCc1ccc(N2C[C@H](C)[C@@H](CC(=O)NCc3ccccc3)C2=O)cc1`, the Potency was inconclusive [activator, partial curve].
In the case of `O=C1C2C(c3ccccc3)C=CC(c3ccccc3)C2C(=O)N1CCCO` (stereo not drawn), the “growth rescue (activation)” value is reported as inactive: 4.76%.
For `Cc1ccc(S(=O)(=O)c2cn(C)c3cc(N4CCCC(C)C4)c(F)cc3c2=O)c(C)c1` (stereo not drawn), the “growth rescue (activation)” value was inactive: 19.5%.
In the case of `Cc1nc(N2CCCC2)ncc1C(=O)Nc1ccc(F)cc1F`, the Potency is reported as inconclusive [activator, partial curve].
With `O=C(Nc1ccccc1Cl)c1cccc(NC(=O)c2cccs2)c1` the Potency was inconclusive [activator, full curve].
In the case of `CCOc1cc(/C=C2/C(=O)ON=C2C)ccc1O`, the Potency is reported as active: 17.8 µM.
In the case of `O=[N+]([O-])c1ccc(Oc2cccnc2)c([N+](=O)[O-])c1`, the Potency is reported as inconclusive [activator, single point].
With `Cc1ccc(C(=O)CCC2CCCCC2=O)cc1` (stereo not drawn) the Potency was inconclusive [activator, partial curve, poor fit].
With `O=C(NC1CCCc2ccccc21)c1c(F)cccc1Cl` (stereo not drawn) the Potency was inconclusive [activator, single point].
For `O=C(Nc1cccc(OC(F)(F)F)c1)C1Cc2c(-c3ccc4c(c3)OCO4)ccnc2O1` (stereo not drawn), the Potency was inconclusive [activator, partial curve, poor fit].
For `CCC(C(=O)Nc1c(C)cccc1C)n1c(-c2ccc(-c3ccccc3)cc2)nc2ccccc21` (stereo not drawn), the Potency was inconclusive [activator, partial curve].
With `N#Cc1cn(-c2ccccc2)nc1-c1ccco1` the Potency was active: 8.91 µM.
In the case of `COc1cccc(CNc2nc3cc(-c4ccccc4)sc3c(=O)n2C)c1OC`, the Potency is reported as inconclusive [activator, single point].
With `COc1ccc2c(c1)c1c(c(=O)n(-c3ccccc3)c(=O)n1CC(=O)Nc1ccc(C)c(C)c1)n2C` the “growth rescue (activation)” value was inactive: 8.11%.
With `O=C1c2cccc(-c3ccc(C(F)(F)F)cc3)c2C2CC=CCN12` (stereo not drawn) the Potency was inconclusive [activator, full curve].
With `Cc1ccc2c(c1)cc1c(=O)n(CC(=O)N3CCCCC3)nc(C)n12` the “growth rescue (activation)” value was inactive: 9.4%.
In the case of `CCc1ccc(C(=O)c2cn(CC(=O)Nc3ccc(C)c(C)c3)c3ccccc3c2=O)cc1`, the “growth rescue (activation)” value is reported as inactive: -7.24%.
For `CN1/C(=C/C(=O)c2nc(S(C)(=O)=O)ncc2Cl)C(C)(C)c2ccccc21`, the Potency was active: 12.6 µM.
In the case of `N#C/C(=C(/O)CSc1ccccn1)c1nc2ccccc2s1`, the “growth rescue (activation)” value is reported as inactive: -1.94%.
With `N#CC(CC(=O)c1ccc(F)cc1)c1ccc2c(c1)OCO2` (stereo not drawn) the Potency was active: 11.2 µM.
For `Cc1ccc(N=Nc2c(N)nn(-c3ccccc3)c2N)cc1`, the Potency was inconclusive [activator, partial curve].
For `O=C1C(Cl)=C(NCc2ccco2)C(=O)c2ccccc21`, the Potency was inconclusive [activator, full curve].
In the case of `Cc1cc(Cl)ccc1OCCn1cncn1`, the Potency is reported as inconclusive [activator, partial curve].
In the case of `Cc1ccc(C)c(CS(=O)(=O)c2cn(CC(=O)N(C(C)C)C(C)C)c3ccccc23)c1`, the Potency is reported as inconclusive [activator, partial curve].
With `COC(=O)CCn1cnc2onc(-c3cc(F)cc(F)c3)c2c1=O` the Potency was inconclusive [activator, partial curve].
In the case of `COc1ccc2c(C#CCCO)c(-c3ccc(S(C)(=O)=O)cc3)sc2c1`, the Potency is reported as inconclusive [activator, partial curve].
With `CC1Cc2cc(S(=O)(=O)N3CCCC(C(=O)N4CCCCC4)C3)ccc2N1C(=O)C1CC1` (stereo not drawn) the Potency was inconclusive [activator, partial curve, poor fit].
For `CCC1CCCCN1CCCNC(=O)C1CCN(Cc2nc(-c3ccc(Cl)cc3)oc2C)CC1` (stereo not drawn), the “growth rescue (activation)” value was inactive: -6.25%.
Potency is read from the fitted curve at half-maximal effect; tags tell the direction and shape of the fitted curve.
